# Among all 110,000 compounds or so, about 230 (0.21%) showed an effect of 50% or more. The list shows a part of the results.
# Target: DPAP1 (Plasmodium falciparum, UniProt Q8IIJ9)
# Assay: primary screen, percent inhibition; read by cleavage of a fluorogenic dipeptide substrate; higher = more effect of the substance
# Design: species or system P. falciparum D10 trophozoite lysates; single well
# 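Also: 30 min substrate incubation versus DMSO and 10 µM JCP410 controls.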
# DPAP1, sequence (Q8IIJ9 whole entry, looked up): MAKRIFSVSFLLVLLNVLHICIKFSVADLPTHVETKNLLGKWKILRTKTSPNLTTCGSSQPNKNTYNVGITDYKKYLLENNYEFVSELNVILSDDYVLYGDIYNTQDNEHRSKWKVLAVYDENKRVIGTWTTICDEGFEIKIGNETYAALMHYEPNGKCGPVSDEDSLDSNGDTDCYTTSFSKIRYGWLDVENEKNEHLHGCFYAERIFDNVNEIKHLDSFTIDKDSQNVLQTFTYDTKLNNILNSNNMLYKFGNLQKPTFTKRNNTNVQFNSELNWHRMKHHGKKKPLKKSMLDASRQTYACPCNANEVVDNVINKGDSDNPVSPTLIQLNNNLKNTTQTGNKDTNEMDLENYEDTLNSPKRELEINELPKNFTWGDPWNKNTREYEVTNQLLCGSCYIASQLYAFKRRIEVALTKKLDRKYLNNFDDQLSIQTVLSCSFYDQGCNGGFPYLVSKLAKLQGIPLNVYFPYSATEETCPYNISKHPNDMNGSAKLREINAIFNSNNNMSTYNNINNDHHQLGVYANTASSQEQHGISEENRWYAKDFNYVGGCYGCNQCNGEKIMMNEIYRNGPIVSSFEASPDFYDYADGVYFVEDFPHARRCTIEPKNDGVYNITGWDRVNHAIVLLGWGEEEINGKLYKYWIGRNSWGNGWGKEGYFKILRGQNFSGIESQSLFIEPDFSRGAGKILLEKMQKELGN
row,Compound,% Inhibition @ 10 uM [%]
1,CC12CN3CC(C)(CN(C1)C3c1cc(Br)ccc1O)C2O (stereo not drawn),-7.62
2,O=c1c(CN2CCCCCC2)coc2ccccc12,-0.261
3,O=C(NCC1CCCO1)c1cc2nc(-c3ccc(Cl)c(Cl)c3)cc(C(F)(F)F)n2n1 (stereo not drawn),3.47
4,Cc1ccc(NC(=O)C2CC=CCC2C(=O)O)cc1Cl (stereo not drawn),1.96
5,Cc1ccc(CCNC(=O)C2CCN(c3nnc(C)c4c(C)n(-c5ccc(C)cc5)nc34)CC2)cc1,3.56
6,C=CCOC(=O)C1=C(C)N=C2CCCC(O)=C2C1c1cccc(Br)c1 (stereo not drawn),-8.04
7,COCCCN(C)C1CCN(C(=O)Cn2c(-c3ccccc3)cc(C(C)=O)c2C)CC1,-7.26
8,CC(C)C(=O)Nc1nc(-c2cccc3ccccc23)cs1,1.57
9,O=C(CSCc1ccccc1)N1CCN(Cc2ccc3c(c2)OCO3)CC1,3.87
10,CN(Cc1ccccc1)C(=O)Cc1noc2ccccc12,9.85
11,C[Si](C)(C)CCCN1C=CC(=C2C(=O)c3ccccc3C2=O)C=C1,3.54
12,COc1ccc(C2=NNC(=O)c3ccccc3C2)cc1,-7.35
13,CSc1nnc(NC(=O)c2nc(S(=O)(=O)Cc3ccc(C)cc3)ncc2Cl)s1,-0.946
14,Cc1cccc(CN2CCN(CC(=O)NCc3ccc4c(c3)OCO4)C2=O)c1,-8.49
15,CC(C)(CO)NC(=O)COc1ccc(Cl)cc1Cl,-3.04
16,CCC(=O)Nc1ccccc1C(=O)c1ccccc1,-6.64
17,O=C(N[C@@H](Cc1ccc2ccccc2c1)C(=O)N[C@@H](CCc1ccccc1)CNS(=O)(=O)c1ccc2oc3ccccc3c2c1)OCc1ccccc1,0.744
18,O=C(O)CCC(=O)Nc1ccc(F)cc1,-8.76
19,O=C(NCc1noc2ccccc12)Nc1nccs1,2.49
20,CCOC(=O)c1c(NC(=O)c2nc(SC)ncc2Cl)sc(C(C)=O)c1C,2.19
21,CCNC(=O)CCC1COc2ccccc2O1 (stereo not drawn),1.67
22,CCc1nn(C(C)C(=O)NCCCN2CCOCC2)c(=O)c2cc3occc3n12 (stereo not drawn),-0.281
23,CC(=O)c1sc(N2C(=O)C(O)=C(C(=O)c3cc4ccccc4o3)C2c2ccc(O)cc2)nc1C (stereo not drawn),1.64
24,COc1ccc(-n2nnnc2C2CCN(S(=O)(=O)Cc3ccccc3)CC2)cc1,-9.21
25,CC1=C(C(=O)Nc2cccc(C)n2)C(c2ccsc2)C2=C(O)CC(C)(C)CC2=N1 (stereo not drawn),3.86
26,Cc1ccc(OCC(=O)Nc2ccc(Cl)c(C(F)(F)F)c2)c(Br)c1,2.65
27,CCOC(=O)N1CCC(NC(=O)Cn2ncc3c4ccccc4n(Cc4ccccc4)c3c2=O)CC1,0.137

# — paper PMC6919601, “Identification of Plasmodium dipeptidyl aminopeptidase allosteric inhibitors by high throughput screening” (PLoS ONE, 2019)
